The supplement of paper PMC3334620
Over roughly 33,000 sequences, “E-score (-0.5 to 0.5)” has its median near -0.011; the highest 2% begin near 0.28. Some of the results follow.

biological target: T1, Gcr1 (UniProt P07261); assay: PBM E-score (8-mer binding enrichment) (E-score (-0.5 to 0.5)); higher = stronger / more preferred TF binding; most listed sequences are background and not binding sites; details: protein concentration: 100 nM; construct: GST-full length
T1 sequence: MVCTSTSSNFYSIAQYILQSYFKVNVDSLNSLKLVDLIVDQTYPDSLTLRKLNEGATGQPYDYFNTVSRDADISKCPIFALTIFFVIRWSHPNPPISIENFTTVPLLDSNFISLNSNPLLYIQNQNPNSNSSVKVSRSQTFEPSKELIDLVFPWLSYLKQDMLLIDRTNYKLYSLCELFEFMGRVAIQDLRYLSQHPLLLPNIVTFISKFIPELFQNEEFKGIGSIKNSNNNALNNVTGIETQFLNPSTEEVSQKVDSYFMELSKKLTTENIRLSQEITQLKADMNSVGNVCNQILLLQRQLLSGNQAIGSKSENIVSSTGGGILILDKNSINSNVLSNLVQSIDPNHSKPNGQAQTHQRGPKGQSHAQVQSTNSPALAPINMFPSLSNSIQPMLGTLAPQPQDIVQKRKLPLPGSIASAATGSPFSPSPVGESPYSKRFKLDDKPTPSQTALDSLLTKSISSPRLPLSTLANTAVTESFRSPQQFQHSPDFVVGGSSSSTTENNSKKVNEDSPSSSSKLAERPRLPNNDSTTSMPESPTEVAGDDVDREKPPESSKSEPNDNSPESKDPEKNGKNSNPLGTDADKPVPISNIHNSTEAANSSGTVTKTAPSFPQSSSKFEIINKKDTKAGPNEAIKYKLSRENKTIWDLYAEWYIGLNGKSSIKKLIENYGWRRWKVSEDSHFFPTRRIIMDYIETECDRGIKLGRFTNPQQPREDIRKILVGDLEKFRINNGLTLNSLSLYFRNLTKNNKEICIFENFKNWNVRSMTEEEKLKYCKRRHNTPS
Procedure, shortened: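 Each ungapped eight-base word and its reverse complement, pooled, received an E-score from the Universal PBM Analysis Suite. Underlying scans, normalised with masliner, recorded fluorescent anti-GST bound to GST-tagged yeast transcription factors. These were applied at about 100-200 nM to universal all-10-mer Agilent arrays double-stranded by primer extension.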

| Sequence | PBM E-score |
| --- | --- |
| CAGTGGTA | 0.115 |
| ACAGGGGC | -0.086 |
| AAGACAGT | -0.0936 |
| AGTAGAAG | 0.327 |
| CCCGTACC | -0.0406 |
| ACTAGGAT | 0.103 |
| AACAGACT | -0.102 |
| AGCTAGGA | 0.0251 |
| AAGGGGAA | 0.156 |
| GCACCCAC | 0.397 |
| ATAAGCGG | 0.0191 |
| AATCTGGG | 0.175 |
| CACTCAGA | -0.0497 |
| GTGGATTA | -0.102 |
| AGCAGGAC | -0.0439 |
| GTGGCCGA | -0.00122 |
| CAGTTAGC | 0.0719 |
| AAACTGAG | -0.163 |
| AACGATCA | -0.186 |
| AAATCGGT | -0.0156 |
| TAGGAGAA | 0.0199 |
| ACTCGAGC | -0.1 |
| CCCTTCAA | 0.0622 |
| AAACTCGT | -0.029 |
| CCCCTGAC | -0.15 |

| Sequence | PBM E-score |
| --- | --- |
| GATTCTCC | -0.05 |
| TATGTGGA | 0.224 |
| ATGACCGG | -0.125 |
| AGTATTTC | 0.032 |
| AGGTCGGC | -0.0908 |
| AGATCCCT | -0.127 |
| AACTCTAG | -0.0552 |
| ACGGAGTG | -0.129 |
| AGCGCCAT | 0.191 |
| CAAGTACC | -0.0508 |
| ATATGCGG | 0.0427 |
| AGCCGCTC | -0.04 |
| CTCCTCGC | -0.185 |
| GGGACCCC | 0.00587 |
| AAGGAGGT | -0.0668 |
| CTGCTAAC | -0.0691 |
| ACCACACC | -0.0525 |
| CACCTTCA | -0.102 |
| ACCCGTGA | -0.0368 |
| AGCCGCTG | 0.0418 |
| CTGGTAAC | 0.168 |
| CCTGTCGA | -0.159 |
| AGTTGCCA | 0.134 |
| CTTCCCTA | -0.0119 |
| ACTCCAAA | 0.116 |

| Sequence | PBM E-score |
| --- | --- |
| ACCATCCC | -0.17 |
| GGGGAAGA | -0.101 |
| ATCGCTAG | -0.06 |
| TGCGAACA | 0.0226 |
| AATGACGG | 0.0781 |
| CACAGGGG | -0.0496 |
| CACTGTGC | -0.16 |
| AAAATGAG | 0.146 |
| TATGAAGA | 0.0942 |
| GCATTTTA | 0.165 |
| AGATGTGA | 0.0328 |
| AAGCAATT | -0.0848 |
| AAAACTCA | 0.0686 |
| ACGGCACT | 0.0128 |
| GAATGATA | 0.081 |
| CATCGACC | -0.0578 |
| CGTGTGAG | -0.221 |
| ACGCGTTG | 0.0124 |
| GCTGTTAA | 0.0207 |
| CAGTGACG | -0.0872 |
| ACAGCTAT | -0.158 |
| CCGTCCTA | -0.158 |
| ACGCTGAC | 0.0847 |
| CAGGCCCA | -0.2 |
| ATCGAAAC | -0.0701 |

| Sequence | PBM E-score |
| --- | --- |
| GTACCAAC | -0.0534 |
| CCTGCGCA | -0.0647 |
| GCCTAAAA | 0.107 |
| AGGAATCC | 0.459 |
| CCAGTTCG | 0.104 |
| CTTACGCC | -0.114 |
| TACATCGA | 0.0964 |
| ATCGGGTA | -0.136 |
| AAATACGA | 0.156 |
| ACGCTACC | -0.00855 |
| ACTCCTTG | -0.097 |
| GCCAACCC | -0.101 |
| GAGGTTAA | -0.123 |
| AGCGATTC | -0.0651 |
| ATTTTATC | 0.138 |
| AGAGGCCC | 0.0542 |
| CAATTACC | 0.157 |
| ATTCTCGA | 0.172 |
| GCTTAGTA | -0.128 |
| ATCGTGAC | 0.0576 |
| CTGCTACC | -0.0201 |
| AGTGAACG | -0.0715 |
| CCATAGTA | -0.0273 |
| CGCCGGAG | -0.0634 |
| AACTAAAC | 0.0338 |

| Sequence | PBM E-score |
| --- | --- |
| CTTTCGCA | -0.0299 |
| CTTCGGTC | -0.0315 |
| ATCTAAAT | 0.0297 |
| GGGGTCCA | 0.0846 |
| CAAGGTAG | -0.125 |
| ACGAGGCA | -0.174 |
| CGGTCGTA | -0.112 |
| GCAAAAGC | -0.11 |
| CGGCAAAA | 0.0366 |
| CACGAGGC | 0.00318 |
| GCCATCGA | -0.187 |
| CAGGAGGC | 0.113 |
| AATATGCA | -0.0622 |
| AATGAGCT | -0.0086 |
| ATCGCAAC | 0.0352 |
| GATGTAGC | -0.0988 |
| GGAAGTCC | 0.258 |
| ATCAGACC | 0.0447 |
| GACTATCA | -0.176 |
| ATCAAAAC | 0.0109 |
| CGTCGATA | -0.165 |
| CAGTTGGA | -0.0721 |
| CTGATTCA | 0.05 |
| TCTCACAA | -0.08 |
| ACCTCTTA | 0.127 |

| Sequence | PBM E-score |
| --- | --- |
| AAAGGCTC | -0.0706 |
| AGTAATCC | -0.0203 |
| AGGGCGAG | -0.263 |
| ACGAGGGC | 0.118 |
| GCCTCATA | -0.0347 |
| ACGGATGG | -0.138 |
| CATTGCCC | -0.123 |
| ATGTTAAA | 0.108 |
| CCCTGATA | -0.103 |
| GAAGAGTC | -0.129 |
| ACTCAAGC | -0.149 |
| GATCGCAC | -0.0107 |
| CTGGACCC | -0.0397 |
| ACGATCTA | -0.177 |
| CGGTAAAG | -0.0673 |
| GACAGCAA | -0.143 |
| ACTGGTCG | 0.124 |
| GATGTTTA | 0.0319 |
| ATAATAGA | 0.0677 |
| CGACCACC | 0.015 |
| ATCCGCGG | -0.0453 |
| GTGACCCA | 0.132 |
| CTACCACC | 0.0268 |
| CGTGCACG | -0.215 |
| AATTGAAT | -0.161 |

| Sequence | PBM E-score |
| --- | --- |
| CCACCACC | 0.124 |
| AGTGTTCG | 0.00276 |
| CGATACCC | 0.0179 |
| AATAACGA | 0.125 |
| CATACATA | 0.0456 |
| AATCGAGT | 0.00756 |
| ATACACGA | 0.138 |
| AGACAGGC | -0.152 |
| AAGGTCCT | -0.0902 |
| CACTCTCA | 0.00231 |
| GAAATTAA | 0.116 |
| ACAGATCA | -0.134 |
| GGCGTGGA | -0.111 |
| CACATAGA | 0.0762 |
| TAAAATTA | -0.00806 |
| AGAACCCG | 0.175 |
| ATTTATCC | 0.0625 |
| TCATAACA | 0.018 |
| CCTTACGA | -0.0419 |
| ATCTCTAA | 0.0478 |
| AATCTGAA | 0.161 |
| ACGGCCAA | -0.111 |
